Paper PMC4336329 (PLoS ONE, 2015)
Among all 310,000 compounds or so, about 2,200 (0.71%) showed an effect of 50% or more. The effect is printed as a negative number. The list shows a part of the results.

target: human ether-à-go-go-related gene (hERG) potassium channel (human, UniProt Q12809); assay: primary screen, population patch clamp on CHO cells stably expressing hERG
Sequence (Q12809 whole entry, looked up): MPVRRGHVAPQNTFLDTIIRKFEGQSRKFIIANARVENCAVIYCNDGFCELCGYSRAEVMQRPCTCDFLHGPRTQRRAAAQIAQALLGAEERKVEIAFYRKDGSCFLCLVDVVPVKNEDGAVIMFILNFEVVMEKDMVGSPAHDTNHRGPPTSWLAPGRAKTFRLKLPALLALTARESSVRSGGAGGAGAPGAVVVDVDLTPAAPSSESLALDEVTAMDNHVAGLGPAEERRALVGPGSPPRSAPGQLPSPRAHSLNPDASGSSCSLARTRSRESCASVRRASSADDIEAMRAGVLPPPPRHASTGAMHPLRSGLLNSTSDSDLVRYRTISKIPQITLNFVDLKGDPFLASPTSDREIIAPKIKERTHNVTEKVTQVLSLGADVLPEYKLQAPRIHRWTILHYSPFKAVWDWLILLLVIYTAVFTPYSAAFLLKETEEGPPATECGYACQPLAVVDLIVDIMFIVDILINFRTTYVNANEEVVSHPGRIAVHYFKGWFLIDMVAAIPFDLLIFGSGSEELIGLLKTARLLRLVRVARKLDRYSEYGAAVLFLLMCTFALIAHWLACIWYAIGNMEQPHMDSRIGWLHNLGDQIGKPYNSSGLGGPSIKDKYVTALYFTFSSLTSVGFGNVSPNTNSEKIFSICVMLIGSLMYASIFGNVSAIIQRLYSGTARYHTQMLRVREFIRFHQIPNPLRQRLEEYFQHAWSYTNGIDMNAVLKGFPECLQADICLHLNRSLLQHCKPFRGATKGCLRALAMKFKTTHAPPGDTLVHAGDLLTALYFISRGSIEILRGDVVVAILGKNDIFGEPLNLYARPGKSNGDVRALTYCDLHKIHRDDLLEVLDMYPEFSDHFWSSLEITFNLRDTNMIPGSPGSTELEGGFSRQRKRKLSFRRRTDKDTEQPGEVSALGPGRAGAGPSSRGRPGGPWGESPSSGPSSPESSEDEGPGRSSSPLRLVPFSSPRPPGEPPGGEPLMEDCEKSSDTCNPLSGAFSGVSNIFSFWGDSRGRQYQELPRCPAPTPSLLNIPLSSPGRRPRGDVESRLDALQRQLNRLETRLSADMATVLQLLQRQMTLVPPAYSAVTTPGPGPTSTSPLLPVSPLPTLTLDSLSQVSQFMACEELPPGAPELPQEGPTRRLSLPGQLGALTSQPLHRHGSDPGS

| Compound | hERG current change (%, negative = inhibition) at 1uM [%] |
| --- | --- |
| Cc1ccc(C2C(C(=O)c3cccs3)=C(O)C(=O)N2CCN2CCOCC2)o1 (stereo not drawn) | -8.77 |
| COc1ccc(-c2cc(=O)oc3cc(OCC(=O)NCC4CCC(C(=O)O)CC4)ccc23)cc1 (stereo not drawn) | 12.4 |
| CC(=O)OC1=C(C#N)Cn2ccc3cccc1c32 | 9.07 |
| CCN1C(=O)CC(N2CCC(C(=O)N3CCCCCC3)CC2)C1=O (stereo not drawn) | 11.6 |
| CC(=O)N1N=C(c2cccs2)CC1c1cccs1 (stereo not drawn) | 6.89 |
| O=C(/C=C/Nc1ccc(S(=O)(=O)Nc2ncccn2)cc1)c1ccc(Cl)c(Cl)c1 | 9.43 |
| C=CCC(CC=C)(NC(=O)c1ccccc1C)c1ccccc1 | 13.8 |
| O=S(=O)(NCCc1ccncc1)c1ccc(Br)cc1 | 3.96 |
| C/C(=N\NC(N)=O)c1cc(Cl)cc(Cl)c1O | 13.8 |
| O=C(CN1CCC(NC(=O)c2cccc(F)c2)CC1)Nc1ccc(Br)cc1 | -53.9 |
| NNc1nc2ccccc2nc1C(F)(F)F | 11.9 |
| Cc1cc(C(=O)NCCN2CCCCC2C)n(-c2ccccc2)n1 (stereo not drawn) | 7.55 |
| O=C(NNC(=O)C1CCCN(c2ncccn2)C1)c1ccc(F)cc1 (stereo not drawn) | 8.67 |
| CC1CCCCC1NC1=NCCS1 (stereo not drawn) | 12.3 |
| Cc1ccc(C(C)C)c(OCC(O)CN2CCN(CCO)CC2)c1.Cl (stereo not drawn) | 4.68 |
| O=C(NCC1CCCO1)c1cccc(NC(=O)c2ccco2)c1 (stereo not drawn) | 4.75 |
| Cc1ccc(/C=N/NC(=O)CNC(=O)c2cccc([N+](=O)[O-])c2C)o1 | 14.9 |
| CCOC(=O)Cn1ncc2c(=O)oc3ccccc3c21 | 8.99 |
| CC1CN(CC(O)COc2ccc(C#N)cc2)CCN1CC(O)COc1ccc(C#N)cc1 (stereo not drawn) | -86.2 |
| O=C(Cc1ccccc1)NC1CCN(S(=O)(=O)c2cccc(F)c2)CC1 | 10.5 |
| CC(=O)COc1cc(C)cc2oc(=O)c(C)c(C)c12 | -9.42 |
| CC(=O)c1ccc(NC(=O)c2cc(-c3cccs3)on2)cc1 | 14 |
| CCOC(=O)c1c(NC(N)=O)nc2n1CCC2 | 1.94 |

| Compound | hERG current change (%, negative = inhibition) at 1uM [%] |
| --- | --- |
| Cc1c(NC(=O)/C(C#N)=C/c2ccc(-c3ccc(Cl)cc3)o2)c(=O)n(-c2ccccc2)n1C | 2.8 |
| Cc1ccc(C(=O)COC(=O)COc2ccccc2C)cc1 | 3.93 |
| O=C(O)C1CCCN1S(=O)(=O)c1ccc(Cl)cc1 (stereo not drawn) | 6.21 |
| CC(=O)N1CC=CC1(C)C(=O)O (stereo not drawn) | 23.3 |
| CNC(=S)NC1CC2CCCC(C1)N2Cc1ccc(C)cc1 (stereo not drawn) | -4.5 |
| Cc1cccc(OCC(=O)NC2CCCC2)c1 | 14.5 |
| CC(NC(=O)N1CCOCC1)c1ccccc1 (stereo not drawn) | 13.8 |
| Nc1nnc(C(c2ccccc2)c2ccccc2)s1 | 6.58 |
| O=C(Nc1ccc(N2CCCC2)c(S(=O)(=O)Nc2cccc(C(F)(F)F)c2)c1)c1cccs1 | 16.2 |
| O=C(CNc1cccc(Cl)c1)c1ccc(Cl)cc1 | -8.39 |
| N#CC1=C(N)Oc2c(oc(CO)cc2=O)C1c1ccsc1 (stereo not drawn) | 14.9 |
| O=C(O)CCCNC(=O)c1ccccn1 | 11.1 |
| CC(Oc1ccccc1)C(=O)Nc1ccc(S(=O)(=O)N2CCOCC2)cc1 (stereo not drawn) | 4.11 |
| Cc1cccc(N(C(=O)c2csnn2)C(C(=O)NC(C)(C)C)c2cccs2)c1 (stereo not drawn) | 0.549 |
| C=CCOc1ccc(CNc2nccs2)cc1 | 2.92 |
| COc1cccc(NC(=O)COC(=O)C2C3CC4OC(=O)C2C4C3)c1 (stereo not drawn) | 10 |
| O=C(C1=C[C@H](c2ccc(C(F)(F)F)cc2)C[C@H](OCc2ccc(CO)cc2)O1)N1CCN(Cc2ccccc2)CC1 | 11.1 |
| CN(CC(=O)Nc1ccccc1F)S(=O)(=O)c1ccc2c(c1)n(C)c(=O)c(=O)n2C | 1.5 |
| COc1ccc(N(CC(=O)N2CCN(Cc3ccccc3)CC2)S(C)(=O)=O)cc1OC | 7.08 |
| COc1ccc(CCNC(=O)[C@@H](NC(=O)N2CCn3c2nc2ccccc23)C(C)C)cc1OC | 6.99 |
| CNC(=O)[C@@]1(C)C=C[C@@H](Cc2ccccc2)N1C(=O)OC | 17.3 |
| CCN1CC2(COC(=O)c3ccccc3N)CCC(OC)C34C5CC6C(OC)CC(O)(C5C6OC)C(O)(C(OC)C23)C14 (stereo not drawn) | 3.14 |
| CCOC(=O)N1CCC(NCCNC(=O)c2ccccc2)CC1.Cl | 5.68 |

| Compound | hERG current change (%, negative = inhibition) at 1uM [%] |
| --- | --- |
| CCC(C)NCCOCCOc1ccccc1-c1ccccc1.O=C(O)C(=O)O (stereo not drawn) | -2.95 |
| Cc1cccc(NC(=O)CSc2nnc(-c3cc(C)n(-c4ccccc4)c3C)o2)c1C | 10.9 |
| CCOC(=O)C(Cc1ccccc1)C(=O)Nc1cccc2ccccc12 (stereo not drawn) | 9.89 |
| Cc1cc(C(=O)NCC(=O)Nc2c(C)cccc2C)c(C)o1 | 10.8 |
| COc1ccc(-n2cc(CNCCc3cnc[nH]3)c(-c3cccc(F)c3)n2)cc1 | -5.18 |
| Cn1c(COc2nnc(-c3ccc(Cl)cc3)c3ccccc23)nc2ccccc21 | 13.8 |
| CCC[N+]1(CC#CCC(c2ccccc2)c2ccccc2)CCCCC1.[Br-] | -24.4 |
| O=C(Nc1ccc(S(=O)(=O)Nc2cnc3ccccc3n2)cc1)c1ccc([N+](=O)[O-])cc1Cl | 9.39 |
| COc1ccccc1NC(=O)Oc1cccc(OC(=O)c2ccccc2)c1 | 11.4 |
| CC(C)CCOP(N)(=O)Oc1ccccc1Cl (stereo not drawn) | 13.5 |
| COc1ccc(-c2csc3ncn(-c4ccccc4)c(=O)c23)cc1OC | 10.5 |
| O=C(CN1CCOCC1)Nc1cccc(C(=O)Nc2cccc(C(F)(F)F)c2)c1 | -7.81 |
| CCC(c1nnc(SCC(=O)N2CCOCC2)n1C1CCCCC1)N(C)C (stereo not drawn) | 3.69 |
| COc1cc(OC)nc(S(C)(=O)=O)n1 | 3.43 |
| C/C=C(/C)C(=O)Nc1cccc(C2=NOC3(C2)C[C@@H](C(N)=O)N(C(=O)c2ccc(OC)cc2)C3)c1 (stereo partly drawn) | 13.9 |
| COc1ccc(Nc2ccc([N+](=O)[O-])cn2)cn1 | 13.2 |
| O=C(c1ccc(F)cc1F)N1CCN(c2ncccn2)CC1 | 7.76 |
| Cc1nnc(Nc2ccccc2F)s1 | 10 |
| COc1ccccc1C(=O)NC(=O)COC(=O)c1ccc([N+](=O)[O-])cc1Cl | 12 |
| Cc1ccc(C2(CCN)CCOC(C(C)C)C2)cc1 (stereo not drawn) | 16.8 |
| O=C(/C=C/c1ccccc1[N+](=O)[O-])N1CCN(C(=O)c2ccco2)CC1 | -9.07 |
| CCOC(=O)c1ccc(NC(=S)N2CCN(CCO)CC2)cc1 | 15.9 |
| COc1ccc(OC)c(S(=O)(=O)N2CCC(C(=O)Nc3ccccc3)CC2)c1 | 7.24 |

| Compound | hERG current change (%, negative = inhibition) at 1uM [%] |
| --- | --- |
| O=C(C1CCC(N2C(=O)C3CC=CCC3C2=O)CC1)N1CCCCC1 (stereo not drawn) | 15.7 |
| FC(F)(F)c1cnc(NNC(=S)Nc2cccnc2)c(Cl)c1 | 9.31 |
| O=C(NCCN1CCOCC1)c1ccccc1Cl | 14.1 |
| C=CCc1ccc(OCCOCCOc2cccc3ccc(C)nc23)c(OC)c1.O=C(O)C(=O)O | -12.7 |
| Cc1ccc(S(=O)(=O)N[C@@H](CC(C)C)C(=O)N2CCC(C(=O)N[C@H](C(=O)O)C(C)C)CC2)cc1 | 5.25 |
| COc1cc(NC(=O)C2CC(=O)NC3=C2C(=O)CCC3)cc(OC)c1 (stereo not drawn) | 18.6 |
| Cc1cccc(-n2nc3c(c2NC(=O)c2ccc(Br)o2)CSC3)c1C | 1.4 |
| CCN(CC)S(=O)(=O)c1ccc(C(=O)Nc2cc3oc4ccccc4c3cc2OC)cc1 | -2.97 |
| COC(=O)[C@@]1(Cc2ccc(OC)cc2)[C@@H]2C(=CC(=O)[C@H]2CC(=O)C(=O)N2CCCC2)CN1C(=O)c1ccccc1 | 7.72 |
| CCOC(=O)N1CCN(Cc2ccc(F)cc2F)CC1.O=C(O)C(=O)O | 14.9 |
| CCOC(=O)c1sc(NC(=O)CCN2C(=O)c3ccccc3C2=O)c(C(=O)OCC)c1C | 26.1 |
| CC(=O)Nc1cc2cc(NS(=O)(=O)c3ccc(Cl)cc3)ccc2oc1=O | 16.5 |
| O=C(NC1CC1)C1CCCN1C(=O)NC1CCCCC1 (stereo not drawn) | 9.27 |
| COc1cccc2sc(N(CCN(C)C)C(=O)/C=C/c3cccs3)nc12.Cl | -8.73 |
| Cc1ccc2nc(C)cc(OCC(=O)O)c2c1.Cl | 25 |
| O=C1CCCC(O)=C1C=Nc1cccc(C(F)(F)F)c1 | -1.55 |
| CCCCNS(=O)(=O)c1ccc(NC(=O)c2cccs2)cc1 | 1.84 |
| CCc1nnc(NC(=O)CSc2nnc(-c3ccccc3O)o2)s1 | 14.8 |
| COc1ccc(C(=O)Nc2ncccc2C)cc1S(=O)(=O)N1CCOCC1 | 6.73 |
| N#Cc1ccc(OCCOCCNC2CCCC2)cc1 | 3.88 |
| O=C(CN(C(=O)c1csnn1)c1ccccc1C(F)(F)F)NC1CCCCC1 | 14.5 |
